From the RNAGym collection of RNA variant scans (doi:10.7554/elife.90254) come the findings set out here.

Read counts are not given, so values of variants with three or more changes are uncertain.

The chains are these.
B1: LINE1-full (parent)
chain: UACGUAGGUGGUUUUCCCCUGAUAGUGCUAAGGGGGCCUGGAAGUUUGGACUGGGCAGAGCUCAACACAGCGUGGCAAAGUGGCUGUGGCUAGACUGCCUCUCUGGAUUCCUCGUCACUCAGCAGGGCAUCUCUGAGAGAAAUGCC

Variants of B1 are the subject of this data set. The experiment in a line: self-cleavage, relative activity (ratio to wild type); higher = more cleavage; in vitro, sequencing; the parent is a self-cleaving ribozyme.
Consider U12C C76U U112A, for which the self-cleavage is 2.54. Turning to U12G U52A A138U, the self-cleavage turned out to be 0.9. On to G32C U39A U45G, for which the self-cleavage stood at 1.02. As for U15C U26G U134G, the self-cleavage is 1.05.

Regarding U52C U85C U100C, the self-cleavage was 0.

Take A129U A141G A142U: the self-cleavage is 1.93. For the variant A6U G36A C68U A107G A129G, the self-cleavage came out at 0.11. In the case of U9G U12C U23C U73C U112G C113U C128U it was 0; in that of U39C G58C A77C, 0.03; in that of U9C A77U A141G, 1.44. With U26A U91C A117U A129G A138G A140G, the self-cleavage amounted to 0. In the case of U47A G80A A142G, the self-cleavage is 1.66. As to G7A U12A U13C, the self-cleavage stood at 0.81. For the variant U46C A78G U115C, the self-cleavage stood at 1.43. As for A22U G72A A141G, the self-cleavage came out at 1.55. Consider A65G U119A A141G, for which the self-cleavage worked out at 0.

For the variant G53A U73A U81C U102C, the self-cleavage worked out at 1.39. Consider U45C U46A A57U A124G, for which the self-cleavage worked out at 0. Turning to U52A U100A U108C A136G, the self-cleavage worked out at 1.89. With A30U A50G U62A, the self-cleavage stood at 0.17. G89A U91C U143C: the self-cleavage was found to be 0.04.

In the case of A2G U12C G36U U87C, the self-cleavage was found to be 0.56.

Turning to A43U U91A U119G, the self-cleavage was 0.36. As for U14C A57G A79G, the self-cleavage amounted to 0.94. Take U13C U87C U96C: the self-cleavage turned out to be 0.

Turning to U20C A43U U47C U73A, the self-cleavage turned out to be 1.77.

As for U46C A78G A117U A121G, the self-cleavage was determined as 2.36. In the case of G32A A42U C68U U87C G105U it was 0.03. Take G8A U15C C113A A140G: the self-cleavage is 1.22. Turning to C66G U115C A129G, the self-cleavage is 0.05. As to U29A U96A A124C, the self-cleavage was determined as 0.04. Consider U12C G41U U108C U112C G114A, for which the self-cleavage amounted to 1.72. Regarding U14C G27A A64U A140G, the self-cleavage turned out to be 0.5. For U12C A77U U81C A142G, the self-cleavage was 1.28. A42G U52C A79U: the self-cleavage came to 1.4.

As to A24G A69U C113U, the self-cleavage worked out at 0.08. With U12G C61G A107G U132C, the self-cleavage worked out at 0.42.

For U5C U87A G114A U119C, the self-cleavage is 0.11. As for U9C U47C U130C, the self-cleavage came out at 0.72. Regarding A6G A107U U130A A140G, the self-cleavage was 1.07.

For A64G U81C U132A, the self-cleavage came to 0.31. In the case of U13A U14C U52C, the self-cleavage was determined as 1.06.

For A77G U104G U130C, the self-cleavage was 1.72.

As for U5A U9A C19A A142G, the self-cleavage was 0.71. For the variant A77G A78G U134C, the self-cleavage turned out to be 2.91. In the case of U26C U87A A124G it was 0.08; in that of U47A U119A U134C, 1.66. For the variant A77U A92U C99U U112C, the self-cleavage is 0.16. The same measure for A31G A65G U96C: 0. For the variant A2G C63A A67G, the self-cleavage was determined as 0.35. As to U20A A117G G126A A136G, the self-cleavage turned out to be 2.28.

Turning to U13C U85C A121G, the self-cleavage stood at 0.37. The same measure for U14A G35U A59G U112A A121U: 0.04; for G40A A59G A65G: 0.11; for A24G U87A U96C: 0.26. Regarding U81C U87C A136C, the self-cleavage turned out to be 0.48. Take U14C A67C A79G U100C: the self-cleavage turned out to be 0.92.

Turning to U9C A141G G144A, the self-cleavage worked out at 1.25. In the case of U15C U62C A142G it was 0.13; in that of U45C A64U A69G C110G A138U, 0; in that of A57U A141G U143C, 0.12. U13C U87C U96A U115C: the self-cleavage was 0.26. With U39C A59G A64C, the self-cleavage is 0.

For G72A A94G A107G, the self-cleavage turned out to be 0.27. Regarding U12C U15A C37U U115C, the self-cleavage is 1.38. On to U5C U62A U134A A136G, for which the self-cleavage was determined as 0.

Turning to U12C C18U U91C, the self-cleavage stood at 0.45.

For the variant U12A U26C G48A A79G, the self-cleavage was 0.63.

Consider U15A A42U A77G, for which the self-cleavage came out at 1.71.

Regarding U52A U87A A124G, the self-cleavage is 0.26. U26C G82U U85C U130C: the self-cleavage is 0.27. As to A2G A57G A107U, the self-cleavage was found to be 0.98. On to A42U U46A A79G A121G A141G, for which the self-cleavage stood at 0.92. A79G A117G A138G: the self-cleavage stood at 1.2.

Turning to U119A A136G A138G, the self-cleavage amounted to 2.53. In the case of U13C A92G U119C, the self-cleavage came to 0.19. The same measure for A78G C113U U134C: 1.18; for A30U A138U A142G: 1.36; for U14C U20A G36A C68U U115A U134C: 0.15. In the case of G11A U13C A64G A79G A142U, the self-cleavage was 0.39.

On to U13C U109C A136G, for which the self-cleavage turned out to be 1.99. As to U1C A24U U109C, the self-cleavage is 0.38. As to G10A A42U C95U, the self-cleavage worked out at 0.13. On to G4A A65G U130C U134A, for which the self-cleavage amounted to 0. With A24C G82A A142G, the self-cleavage came out at 1.66. The same measure for A57G A65G A141G: 0; for G25A U87C U130C U143A: 0. In the case of U47C A67G G125A A140G it was 0.8; in that of G11U U13C G54A U62C G82A A136G, 0.03. As to U12G A24G C56U U102C A117G, the self-cleavage is 0.46. In the case of U26C C66U U81G, the self-cleavage amounted to 0.05. On to U23C A64G A69G G88U, for which the self-cleavage is 0. On to A22G U85A A107G U119G, for which the self-cleavage is 0.22. For U46A A92G U96A, the self-cleavage stood at 0.1. As to A24U G34A A57C A117U, the self-cleavage was determined as 0.09. Regarding A42G U45A A59U A77U A94G, the self-cleavage was found to be 1.27. As for A107G U119C U143A, the self-cleavage amounted to 0.7. In the case of G8A C63A A141G it was 0; in that of A2G A31C A124U, 0.77. As for U12A U13A U100A A124G, the self-cleavage turned out to be 1.23.

Regarding U12G A42G U134C, the self-cleavage turned out to be 0.71. As for A6G A94G U108A C146U, the self-cleavage was determined as 0.77. In the case of U12G U81A U112C it was 1.78; in that of A59U A67G A69U U91C, 0.21.

Regarding U13C U15C A42U U87C U100C, the self-cleavage was 0.52.

Take A42G A50U U115C: the self-cleavage was found to be 1.24.

For the variant A43G G75U U87C U130A A140G, the self-cleavage worked out at 0. In the case of U12G A50C U112A A117G it was 1.53; in that of A50G A77G G97U A121G, 0.23. Regarding A6G U62A U87C U112C, the self-cleavage stood at 0. Consider A24G U47C U52A A57G A141G, for which the self-cleavage was 0.92. In the case of G34U A77U C99A C113A U132C, the self-cleavage was 0.78. For A77U A140G U143C, the self-cleavage is 0.65. Regarding A69U G72A U132C, the self-cleavage came to 0.06. G11U G32U U62C A141G: the self-cleavage worked out at 0.06. Regarding A64G C76U U87C U104A, the self-cleavage was determined as 0. For U20A A59G C99A A136G, the self-cleavage was found to be 0.13. In the case of U46C U62C C76U A138G it was 0.04; in that of A59G U62C A78G, 0.09.

Turning to U13A G32C U119C G126U, the self-cleavage was 1.29. Turning to G49A G60C A92G A140G U143C, the self-cleavage came to 0.

With A42G A43C U85C, the self-cleavage came to 0. U39A U119C C128A U132C U134C: the self-cleavage was 1.38.

For U20A U45C A65G A142G, the self-cleavage came to 0.17. Take A22G A30G A138G: the self-cleavage is 0.92. Turning to U26G U85C A138G, the self-cleavage was 0.27.

As for A2U A69G U134G, the self-cleavage turned out to be 0.17. The same measure for G35A U46C U100C: 0.94; for U13C U85C U112C: 0.

As for A31U G49A A124U, the self-cleavage amounted to 1.24. On to A6G U13C U39A A57U, for which the self-cleavage was 0.64.

As to G8A U15C U39C C146U, the self-cleavage came out at 1.45. Turning to A6G U81C U108C A121U, the self-cleavage amounted to 2.04.

Turning to A50U A129G A136G, the self-cleavage was determined as 1.91.

With A64G U87A U104C, the self-cleavage came out at 0.13. With C16A A43G U112C, the self-cleavage worked out at 0.84.

For the variant U47A U62C U119A, the self-cleavage turned out to be 0.03.

Take G54C G86A U96C: the self-cleavage was determined as 0.05. For the variant U5A U29A U104C U115C, the self-cleavage was found to be 0. Take U14C U52A A136G: the self-cleavage amounted to 0.59. On to U9C U39C U96A, for which the self-cleavage stood at 0.1. The same measure for G53A U62C U108C: 0.05. On to U14C U62C U119C, for which the self-cleavage was found to be 0.19.

For the variant U1C U96C G126A, the self-cleavage turned out to be 0.08.

Take A59G A67G U108C: the self-cleavage worked out at 0. In the case of U20C A43G C51G A78U it was 2.17. In the case of A24U C28U U45C A78G it was 1.59.

For U13C A22G C37G U87C A107G A121U, the self-cleavage was 1.41. U5A U9C U13C U73C G75A U115C A121G A141G: the self-cleavage stood at 0. Consider A24G U87A A117C, for which the self-cleavage came out at 0.

Turning to U14C C133A U134A, the self-cleavage is 0.59. In the case of G27A G40U A59G, the self-cleavage came out at 0.01.

With U12C G49A A67G, the self-cleavage is 0. In the case of U104A U115C U134A it was 2.9. Regarding C18U A22G U47C, the self-cleavage is 1.31. Take U23A A50U A65U A107G A121G: the self-cleavage came to 0.12. For the variant U26A A129G U132A, the self-cleavage amounted to 1.17.

On to U14C A92G U130C, for which the self-cleavage turned out to be 0.29.

U23C A42G U73A: the self-cleavage came out at 1.8. Turning to C19G A31G U87A U104A A138G, the self-cleavage is 0.

For U1C U12C A136U, the self-cleavage was determined as 0.52. Turning to G35A C84G U102C A138U C145U, the self-cleavage is 0.03. Consider A2G U12A U81C A136U, for which the self-cleavage worked out at 0. Take U45C A59G G127U: the self-cleavage came out at 0.08. For the variant U13C A78G C90A U91C A142G, the self-cleavage was 0.12.

Take A22G U96A A117U C118U: the self-cleavage is 0.08.

As to U9C U39C U52A C56A A92G C99A U115C, the self-cleavage is 0.
